This assay has as its system BDF1 mice, colon carcinoma 38 sc, T/C %. The assay is described as follows: NCI In Vivo Anticancer Drug Screen. Data for tumor model Colon Carcinoma 38 (subcutaneous) in B6D2F1 (BDF1) mice. Conditions: endpoint: median tumor weight (est.), higher = larger tumour. In outline:
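Ratio of survival or tumor size, compound-treated animals relative to vehicle controls, in tumor-bearing mice.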

Where [1] appears, read: dose: 50.0 mg/kg/injection, schedule: Q07DX002 (ip), vehicle: saline with Tween-80.
Setting [2] is: dose: 25.0 mg/kg/injection, schedule: Q07DX002 (ip), vehicle: Klucel (hydroxypropylcellulose) (HPC).
Setting [3] is: dose: 50.0 mg/kg/injection, schedule: Q07DX002 (ip), vehicle: Klucel (hydroxypropylcellulose) (HPC).
[4] abbreviates: dose: 5.0 mg/kg/injection, schedule: Q07DX002 (ip), vehicle: saline with Tween-80.
Where [5] appears, read: dose: 12.5 mg/kg/injection, schedule: Q07DX002 (ip), vehicle: Klucel (hydroxypropylcellulose) (HPC).
[6] abbreviates: dose: 50.0 mg/kg/injection, schedule: Q07DX002 (ip), vehicle: saline.
[7] abbreviates: dose: 100.0 mg/kg/injection, schedule: Q07DX002 (ip), vehicle: saline.
Setting [8] is: dose: 12.5 mg/kg/injection, schedule: Q07DX002 (ip), vehicle: saline with Tween-80.
The mark [9] stands for this setting: dose: 25.0 mg/kg/injection, schedule: Q07DX002 (ip), vehicle: saline with Tween-80.
Where [10] appears, read: dose: 100.0 mg/kg/injection, schedule: Q07DX002 (ip), vehicle: saline with Tween-80.
Where [11] appears, read: dose: 400.0 mg/kg/injection, schedule: Q07DX002 (ip), vehicle: saline with Tween-80.

Records with an inconclusive call do not appear. Not every entry of the source has a single result; some have several. The list is limited to them. An entry can have further records. Values that stand side by side are repeats across runs, samples, wells, individuals or studies.

As to `Cc1cc2nc3c(=O)[nH]c(=O)nc-3n(CC(O)C(O)C(O)C(O)CO)c2cc1C` (centres undefined), the T/C by setting is: (dose: 50.0 mg/kg/injection, schedule: Q07DX002 (ip), vehicle: suspension in saline) 66 % of control and 107 % of control; (dose: 200.0 mg/kg/injection, schedule: Q07DX002 (ip), vehicle: suspension in saline) 82 % of control and 115 % of control; (dose: 400.0 mg/kg/injection, schedule: Q07DX002 (ip), vehicle: suspension in saline) 75 % of control and 108 % of control.

Turning to `CNc1nc(N(C)C)nc(N(C)C)n1`, the T/C (dose: 100.0 mg/kg/injection, schedule: Q07DX003 (ip), vehicle: saline) was 55 % of control and 106 % of control.

As to `O/N=C/c1ccccc1O.O/N=C/c1ccccc1O.[Cu]`, the T/C under setting [1] is 92 % of control and 121 % of control.

In the case of `CNC(=O)OCc1c(COC(=O)NC)c(C)n(-c2ccc(OC)cc2)c1C`, the T/C under setting [2] is 70 % of control and 105 % of control.

In the case of `O=c1ssc(=Nc2ccccc2)n1-c1ccccc1`, the T/C is, setting by setting: under setting [2], 54 % of control and 150 % of control; under setting [3], 62 % of control and 124 % of control; (dose: 200.0 mg/kg/injection, schedule: Q07DX002 (ip), vehicle: Klucel (hydroxypropylcellulose) (HPC)) 108 % of control and 157 % of control; (dose: 400.0 mg/kg/injection, schedule: Q07DX002 (ip), vehicle: Klucel (hydroxypropylcellulose) (HPC)) 78 % of control and 113 % of control.

Take `C1OC1C1CO1` (centres undefined): the T/C (dose: 2.5 mg/kg/injection, schedule: Q07DX002 (ip), vehicle: saline) was 55 % of control and 107 % of control; the T/C (dose: 5.0 mg/kg/injection, schedule: Q07DX002 (ip), vehicle: saline) is 72 % of control and 176 % of control.

In the case of `C=C(NC(=O)C(=C)NC(=O)c1csc(C2=NC3c4csc(n4)C4NC(=O)c5csc(n5)C(C(C)(O)C(C)O)NC(=O)C5CSC(=N5)/C(=C/C)NC(=O)C(C(C)O)NC(=O)c5csc(n5)C3(CC2)NC(=O)C(C)NC(=O)C(=C)NC(=O)C(C)NC(=O)C(C(C)CC)NC2C=Cc3c(C(C)O)cc(nc3C2O)C(=O)OC4C)n1)C(N)=O` (centres undefined), the T/C reads like this: (dose: 25.0 mg/kg/injection, schedule: Q07DX003 (ip), vehicle: Klucel (hydroxypropylcellulose) (HPC)) 46 % of control and 87 % of control; (dose: 50.0 mg/kg/injection, schedule: Q07DX003 (ip), vehicle: Klucel (hydroxypropylcellulose) (HPC)) 42 % of control and 73 % of control.

`Cc1ccc(S(=O)(=O)N/N=C/C(Br)=C(/Br)C(=O)O)cc1`: the T/C under setting [3] was 89 % of control and 123 % of control.

For the compound `[N-]=[N+]=CC(=O)CCC(N)C(=O)O` (centres undefined), the T/C (dose: 3.12 mg/kg/injection, schedule: Q07DX003 (ip), vehicle: saline) is given as 36 % of control, 90 % of control, 94 % of control.

`CCCCCCCCSC1=C(Cl)C(=O)C(OC)=C(OC)C1=O`: the T/C (dose: 3.12 mg/kg/injection, schedule: Q07DX002 (ip), vehicle: saline with Tween-80) was 65 % of control and 100 % of control.

For `CN(C)c1ccc(C(=C2C=CC(=[N+](C)C)C=C2)c2ccc(N(C)C)cc2)cc1` (tested in a mixture with another compound), the T/C was 85 % of control and 119 % of control (dose: 1.25 mg/kg/injection, schedule: Q07DX002 (ip), vehicle: saline with Tween-80); 111 % of control and 164 % of control under setting [4].

With `C[C@@H]1C[C@H]2[C@@H]3CCC4=CC(=O)C=C[C@]4(C)[C@@]3(F)[C@@H](O)C[C@]2(C)[C@@]1(O)C(=O)CO`, the T/C is given as 69 % of control, 84 % of control, 97 % of control under setting [5]; 68 % of control, 87 % of control, 98 % of control under setting [2]; 37 % of control, 55 % of control, 71 % of control under setting [3]; 13 % of control, 58 % of control, 59 % of control (dose: 100.0 mg/kg/injection, schedule: Q07DX002 (ip), vehicle: Klucel (hydroxypropylcellulose) (HPC)).

As to `O=c1[nH]cccc1O`, the T/C is 44 % of control and 86 % of control (dose: 500.0 mg/kg/injection, schedule: Q07DX002 (ip), vehicle: saline with Tween-80); 78 % of control and 120 % of control (dose: 1000.0 mg/kg/injection, schedule: Q07DX002 (ip), vehicle: saline with Tween-80).

As to `Nc1ccc(Cn2ccc3c4c(N)nc(N)nc4ccc32)cc1`, the T/C is, setting by setting: under setting [4], 60 % of control and 93 % of control; (dose: 10.0 mg/kg/injection, schedule: Q07DX002 (ip), vehicle: saline with Tween-80) 51 % of control and 96 % of control; (dose: 20.0 mg/kg/injection, schedule: Q07DX002 (ip), vehicle: saline with Tween-80) 60 % of control and 93 % of control.

Take `CC(=O)N(C)c1ccc(Nc2cc(C)[nH]c3ccc4ncnc4c23)cc1`: the T/C was 82 % of control and 122 % of control under setting [6]; 48 % of control and 104 % of control under setting [7].

For the compound `CN(C)CCN1C(=O)c2cccc3cc(N)cc(c23)C1=O`, the T/C (dose: 32.0 mg/kg/injection, schedule: Q07DX002 (ip), vehicle: saline with Tween-80) is 52 % of control and 80 % of control.

For the compound `O=C(O[Si](Cc1ccccc1)(Cc1ccccc1)Cc1ccccc1)N(CCCl)CCCl`, the T/C reads like this: under setting [8], 40 % of control and 187 % of control; under setting [1], 59 % of control and 99 % of control.

For `Nc1ncn(C2CC(O)C(CO)O2)c(=O)n1` (centres undefined), the T/C by setting is: (dose: 0.37 mg/kg/injection, schedule: Q07DX002 (ip), vehicle: saline) 32 % of control and 188 % of control; (dose: 0.75 mg/kg/injection, schedule: Q07DX002 (ip), vehicle: saline) 43 % of control and 75 % of control; (dose: 1.5 mg/kg/injection, schedule: Q07DX002 (ip), vehicle: saline) 37 % of control and 65 % of control.

As to `COc1cc(C(C)(C)C)cc(OC)c1C(O)(c1c(OC)cc(C(C)(C)C)cc1OC)c1c(OC)cc(C(C)(C)C)cc1OC`, the T/C is 66 % of control and 103 % of control under setting [9]; 54 % of control and 84 % of control under setting [10].

For the compound `COC(=O)Nc1nc2ccc(C3(c4ccc(F)cc4)OCCO3)cc2[nH]1`, the T/C is, setting by setting: under setting [6], 70 % of control and 122 % of control; under setting [7], 77 % of control and 192 % of control; (dose: 200.0 mg/kg/injection, schedule: Q07DX002 (ip), vehicle: saline) 57 % of control and 101 % of control.

For `Cc1ccc(S(=O)(=O)OCOS(=O)(=O)c2ccc(C)cc2)cc1`, the T/C (dose: 800.0 mg/kg/injection, schedule: Q07DX002 (ip), vehicle: Klucel (hydroxypropylcellulose) (HPC)) was 56 % of control and 82 % of control.

For the compound `Cc1ccc(C(=O)[O][Hg][CH2]C2COC([CH2][Hg][O]C(=O)c3ccc(C)cc3)CO2)cc1` (centres undefined), the T/C by setting is: (dose: 6.25 mg/kg/injection, schedule: Q07DX002 (ip), vehicle: Klucel (hydroxypropylcellulose) (HPC)) 123 % of control and 183 % of control; under setting [5], 93 % of control and 153 % of control.

In the case of `O=S(=O)(c1ccccc1)N1CN2CCN(C2)C1`, the T/C reads like this: under setting [8], 69 % of control and 109 % of control; under setting [10], 82 % of control and 123 % of control; (dose: 200.0 mg/kg/injection, schedule: Q07DX002 (ip), vehicle: saline with Tween-80) 69 % of control and 115 % of control; under setting [11], 47 % of control and 124 % of control.

Take `CCN(CC)CC[n+]1ccc2c(C)c3[nH]c4ccc(O)cc4c3c(C)c2c1`: the T/C is, setting by setting: (dose: 6.25 mg/kg/injection, schedule: Q07DX002 (ip), vehicle: saline) 27 % of control and 92 % of control; (dose: 12.5 mg/kg/injection, schedule: Q07DX002 (ip), vehicle: saline) 53 % of control and 91 % of control.

Regarding `CC(=Nc1ccccc1)C1=C(O)C(Cc2ccccc2)NC1=O` (centres undefined), the T/C is, setting by setting: under setting [9], 61 % of control and 112 % of control; under setting [1], 79 % of control and 110 % of control; under setting [11], 48 % of control and 84 % of control.

Consider `CC(=O)OCc1cc(=O)n(C)c2c3c4c(cc12)c(C)cc(=O)n4CO3`, for which, for the setting “dose: 100.0 mg/kg/injection, schedule: Q07DX003 (ip), vehicle: Klucel (hydroxypropylcellulose) (HPC)”, the T/C is 47 % of control and 85 % of control.

Source of the values: PubChem BioAssay AID212 (DTP/NCI, 2004).
